In patent publication US20230338565A1, “ANTIBODY DRUG CONJUGATE, PREPARATION METHOD THEREFOR AND USE THEREOF” (SICHUAN KELUN-BIOTECH BIOPHARMACEUTICAL CO., LTD., priority 2020, published 2023):
“And” between values parts separate entries of the source, which are not always exact repeats. Equal entries are not always repeated.

How the values were obtained:
[1] = tested on: NCI-N87-Claudin18.2 gastric cancer transplanted tumor; experiment: 12.1 NCI-N87-Claudin18.2 + Balb/c Nude mice CDX model; assay type: in vivo; conditions: 2C6.9-TL001 DAR 7.12, 2C6.9-TL002 DAR 6.95
[2] = tested on: NCI-N87-Claudin18.2 subcutaneous transplanted tumor; experiment: 12.2 2C6.9-TL001 versus 2C6.9 mAb + chemotherapy in CDX model; assay type: in vivo, Balb/c Nude mice; conditions: DAR 7.12
[3] = tested on: HuPrime gastric cancer GA0006 (high expression Claudin18.2 stomach tumor); experiment: 12.4 HuPrime gastric cancer GA0006 + Balb/c Nude mice PDX model; assay type: in vivo; conditions: DAR 7.12
[4] = tested on: NCI-N87-Claudin18.2 subcutaneous transplantation tumor; experiment: 12.5 NCI-N87-Claudin18.2 in Balb/c Nude mouse CDX model; assay type: in vivo, Balb/c Nude mice; conditions: DAR 7.40
[5] = tested on: HEK293T-Claudin18.2 human embryonic kidney cell transplantation tumor; experiment: 12.6 HEK293T-Claudin18.2 in Balb/c Nude mouse CDX model; assay type: in vivo, Balb/c Nude mice; conditions: DAR 7.40
[6] = tested on: NUGC-4 gastric cancer transplantation tumor; experiment: 12.7 NUGC-4 in Balb/c Nude mouse CDX model; assay type: in vivo, Balb/c Nude mice; conditions: DAR 7.40
[7] = tested on: NUGC-4 subcutaneous transplantation tumor; experiment: 12.3 2C6.9-TL001 with different DAR values in CDX (NUGC-4) model; assay type: in vivo, Balb/c Nude mice; conditions: Day 21
[8] = 1 mg/kg tail vein twice a week x6, Day 21, 7 mice/group
[9] = 1 mg/kg tail vein twice a week x6, Day 21
[10] = 3 mg/kg tail vein twice a week x6, Day 21, 7 mice/group
[11] = 3 mg/kg tail vein twice a week x6, Day 21
[12] = 3 mg/kg tail vein twice a week for 3 weeks, Day 21, 7 mice/group
[13] = 3 mg/kg tail vein twice a week for 3 weeks, Day 21
[14] = 3 mg/kg tail vein twice a week, Day 11, 7 mice/group
[15] = 3 mg/kg tail vein twice a week, Day 11
[16] = 3 mg/kg tail vein twice a week x5, Day 17, 7 mice/group
[17] = 3 mg/kg tail vein twice a week x5, Day 17
[18] = 3 mg/kg tail vein twice a week x5, Day 24, 7 mice/group
[19] = 3 mg/kg tail vein twice a week x5, Day 24
[20] = 10 mg/kg tail vein twice a week x5, Day 17, 7 mice/group
[21] = 10 mg/kg tail vein twice a week x5, Day 17
[22] = 10 mg/kg tail vein twice a week x5, Day 24, 7 mice/group
[23] = 10 mg/kg tail vein twice a week x5, Day 24
[24] = 0.3 mg/kg tail vein twice a week x6, Day 31, 8 mice/group
[25] = 0.3 mg/kg tail vein twice a week x6, Day 31
[26] = 1 mg/kg tail vein twice a week x6, Day 31
[27] = 3 mg/kg tail vein twice a week x6, Day 31, 8 mice/group
[28] = 3 mg/kg tail vein twice a week x6, Day 31
[29] = 0.3 mg/kg tail vein twice a week x6, Day 21, 8 mice/group
[30] = 0.3 mg/kg tail vein twice a week x6, Day 21
[31] = 1 mg/kg tail vein twice a week x6, Day 21, 8 mice/group
[32] = 3 mg/kg tail vein twice a week x6, Day 21, 8 mice/group
[33] = 10 mg/kg tail vein twice a week x6, Day 21, 8 mice/group
[34] = 10 mg/kg tail vein twice a week x6, Day 21
[35] = 5.25 mg/kg tail vein twice a week for 3 weeks
[36] = 17.5 mg/kg tail vein twice a week for 3 weeks

B1: 2C6.9-TL001: ADC prepared by conjugating TL001 with humanized anti-Claudin 18.2 monoclonal antibody 2C6.9-hz21 (conjugate)
heavy: QVQLQESGPGLVKPSETLSLTCTVSGFSLTRYGVSWIRQPPGKGLEWIGVIWGEGNTNYNPSLKSRVTISKDSSKSQVSLKLSSVTAADTAVYYCARVNFGNALDYWGQGTLVTVSS[human IgG1 constant region not spelt out]
light: DIVMTQSPDSLAVSLGERATINCKSSQSLLNSGNQKNYLTWYQQKPGQPPKLLIYWASTRDSGVPDRFSGSGSGTDFTLTISSLQAEDVAVYYCQNDFIFPLTFGGGTKVEIKRTVAAPSVFIFPPSDEQLKSGTASVVCLLNNFYPREAKVQWKVDNALQSGNSQESVTEQDSKDSTYSLSSTLTLSKADYEKHKVYACEVTHQGLSSPVTKSFNRGEC
Tumor regression CR (mice with complete regression) [1, 8]: 0 | Tumor regression PR (mice with partial regression) [1, 8]: 4 | T/C (%) [1, 9]: 29.96% | TGI (%) [1, 9]: 96.03% | Tumor volume (mm^3) (x ± SEM) [1, 9]: 143.91 ± 28.23 mm^3 | Tumor regression CR (mice with complete regression) [1, 10]: 4 | Tumor regression PR (mice with partial regression) [1, 10]: 3 | T/C (%) [1, 11]: 2.70% | TGI (%) [1, 11]: 133.50% | Tumor volume (mm^3) (x ± SEM) [1, 11]: 12.96 ± 4.62 mm^3 | Tumor regression CR (mice with complete regression) [2, 12]: 5 | Tumor regression PR (mice with partial regression) [2, 12]: 2 | TGI (%) [2, 13]: 125.73% | Tumor volume (mm^3) (x ± SEM) [2, 13]: 17.75 ± 3.97 mm^3 | Tumor regression CR (mice with complete regression) [2, 14]: 0 | Tumor regression PR (mice with partial regression) [2, 14]: 6 | TGI (%) [2, 15]: 121.68% | Tumor volume (mm^3) (x ± SEM) [2, 15]: 62.76 ± 9.98 mm^3 | Tumor regression CR (mice with complete regression) [3, 16]: 0 | Tumor regression PR (mice with partial regression) [3, 16]: 4 | T/C (%) [3, 17]: 23.96% | TGI (%) [3, 17]: 94.72% | Tumor volume (mm^3) (x ± SEM) [3, 17]: 187.00 ± 46.07 mm^3 | Tumor regression CR (mice with complete regression) [3, 18]: 0 | Tumor regression PR (mice with partial regression) [3, 18]: 6 | T/C (%) [3, 19]: 8.78% | TGI (%) [3, 19]: 103.76% | Tumor volume (mm^3) (x ± SEM) [3, 19]: 111.83 ± 42.26 mm^3 | Tumor regression CR (mice with complete regression) [3, 20]: 7 | Tumor regression PR (mice with partial regression) [3, 20]: 0 | T/C (%) [3, 21]: 0.00% | Tumor volume (mm^3) (x ± SEM) [3, 21]: 0.00 ± 0.00 mm^3 | Tumor regression CR (mice with complete regression) [3, 22]: 7 | Tumor regression PR (mice with partial regression) [3, 22]: 0 | T/C (%) [3, 23]: 0.00% | TGI (%) [3, 23]: 113.70% | Tumor volume (mm^3) (x ± SEM) [3, 23]: 0.00 ± 0.00 mm^3 | Tumor regression CR (mice with complete regression) [4, 24]: 0/0 | Tumor regression PR (mice with partial regression) [4, 24]: 0/0 | T/C (%) [4, 25]: 74.04% | TGI (%) [4, 25]: 34.04% | Tumor volume (mm^3) (x ± SEM) [4, 25]: 437.74 ± 16.68 mm^3 | Tumor regression CR (mice with complete regression) ([4]; 1 mg/kg tail vein twice a week x6, Day 31, 8 mice/group): 0 | T/C (%) [4, 26]: 18.13% | TGI (%) [4, 26]: 122.57% | Tumor volume (mm^3) (x ± SEM) [4, 26]: 107.06 ± 9.63 mm^3 | Tumor regression CR (mice with complete regression) [4, 27]: 4 and 4/4 | Tumor regression PR (mice with partial regression) [4, 27]: 4 and 4/4 | T/C (%) [4, 28]: 3.69% | TGI (%) [4, 28]: 184.22% | Tumor volume (mm^3) (x ± SEM) [4, 28]: 21.83 ± 2.26 mm^3 | Tumor regression CR (mice with complete regression) [5, 29]: 1 | Tumor regression PR (mice with partial regression) [5, 29]: 0 | T/C (%) [5, 30]: 32.83% | TGI (%) [5, 30]: 70.99% | Tumor volume (mm^3) (x ± SEM) [5, 30]: 507.95 ± 99.30 mm^3 | Tumor regression CR (mice with complete regression) [5, 31]: 0 | Tumor regression PR (mice with partial regression) [5, 31]: 2 | T/C (%) [5, 9]: 10.13% | TGI (%) [5, 9]: 94.98% | Tumor volume (mm^3) (x ± SEM) [5, 9]: 156.48 ± 23.87 mm^3 | Tumor regression CR (mice with complete regression) [5, 32]: 6 | Tumor regression PR (mice with partial regression) [5, 32]: 2 | T/C (%) [5, 11]: 0.92% | TGI (%) [5, 11]: 182.81% | Tumor volume (mm^3) (x ± SEM) [5, 11]: 14.36 ± 3.63 mm^3 | Tumor regression CR (mice with complete regression) [6, 32]: 0/0 | Tumor regression PR (mice with partial regression) [6, 32]: 0/0 | T/C (%) [6, 11]: 48.95% | TGI (%) [6, 11]: 56.62% | Tumor volume (mm^3) (x ± SEM) [6, 11]: 385.67 ± 35.09 mm^3 | Tumor regression CR (mice with complete regression) [6, 33]: 0 | Tumor regression PR (mice with partial regression) [6, 33]: 2 | T/C (%) [6, 34]: 19.09% | TGI (%) [6, 34]: 90.28% | Tumor volume (mm^3) (x ± SEM) [6, 34]: 148.23 ± 25.52 mm^3

B2: 2C6.9-TL001 (DAR: 3.79): 2C6.9-TL001 from conjugation feed ratio 5:1, toxin-to-antibody ratio 3.79 (conjugate)
heavy: QVQLQESGPGLVKPSETLSLTCTVSGFSLTRYGVSWIRQPPGKGLEWIGVIWGEGNTNYNPSLKSRVTISKDSSKSQVSLKLSSVTAADTAVYYCARVNFGNALDYWGQGTLVTVSS[human IgG1 constant region not spelt out]
light: DIVMTQSPDSLAVSLGERATINCKSSQSLLNSGNQKNYLTWYQQKPGQPPKLLIYWASTRDSGVPDRFSGSGSGTDFTLTISSLQAEDVAVYYCQNDFIFPLTFGGGTKVEIKRTVAAPSVFIFPPSDEQLKSGTASVVCLLNNFYPREAKVQWKVDNALQSGNSQESVTEQDSKDSTYSLSSTLTLSKADYEKHKVYACEVTHQGLSSPVTKSFNRGEC
TGI (%) [7, 35]: 43.76% | Tumor volume (mm^3) (x ± SEM) [7, 35]: 736.12 ± 92.59 mm^3 | TGI (%) [7, 36]: 66.94% | Tumor volume (mm^3) (x ± SEM) [7, 36]: 477.42 ± 67.90 mm^3
